Assay results taken from PubChem BioAssay (NCATS).
The inconclusive results got no clear call from the source; some entries with a clear call stand among them for comparison. For some of these results: No potency is given beside an inconclusive call; the fits are too rough. Activity calls are given as the source filed them. Calls follow the shape of the dose curve; as a rule, active = well fitted curve in the direction sought with a large enough effect; inconclusive = small, poorly fitted or top-dose-only effect, or another doubt; inactive = no such curve, though single readings can be large; an effect the other way counts as inactive or inconclusive.

Columns and labels:
[1] = system: Zika virus NS2B-NS3 protease (linked construct); assay: Primary screen NINDS Rhodamine qHTS for Zika virus inhibitors (AID 1347160); also: nearly all actives have a fitted effect of over 55% in size; also: potency is read from the fitted curve at half-maximal effect
Outline: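 Single-chain NS2B-NS3 protease, 25 nM, pH 8.0; compounds preincubated 15 min. Activity: Rhodamine110 release from 1.5 microM substrate over 15 min, room temperature, data fitted to 4-parameter Hill.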

[2] = G06 Cancer Cell Toxicity qHTS against the NCATS CANVASS Library (AID 1347368); also: nearly all actives have a fitted effect of over 60% in size; also: potency is read from the fitted curve at half-maximal effect; as to activity change, negative = cytotoxic: % is scaled to controls: 0 for no effect and ±100 for the full control effect
Outline: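 ATP luminescence (CellTiterGlo) readout of cytotoxicity. Canine G06 glioma cells, 500/well, 72 hr incubation at 37C with compounds; bortezomib titration served as control.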

[3] = qHTS for Hypoxia signaling pathway (HIF-1) antagonists against the NCATS CANVASS Library (AID 1347374);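 also: HRE-bla ME-180 cells stimulated with cobalt chloride to stabilize HIF-1alpha; % is scaled to controls: 0 for no effect and ±100 for the full control effect; nearly all actives have a fitted effect of over 60% in size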
Outline: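 Beta-lactamase reporter under HRE control in ME-180 cells; CoCl2 stimulus (60 uM solution as added), compounds 11-pt qHTS, 17 h 37C. CCF4 dye 2 h RT, 460/530 nm emission. CellTiter-Glo viability in same wells.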

[4] = qHTS for Hypoxia signaling pathway (HIF-1) agonists against the NCATS CANVASS Library (AID 1347375); also: 0% is about no effect
Outline: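 Read-out: beta-lactamase FRET (CCF4-AM, ex 405, em 460 and 530 nm) after 2 h at room temperature. ME-180 cells stably carrying HRE-bla were treated 17 h at 37C with compounds in an 11-point concentration series.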

[5] = qHTS for activators of Nrf2/ARE signaling pathway screened against the NCATS CANVASS Library (AID 1347391); also: potency is read from the fitted curve at half-maximal effect; nearly all actives have a fitted effect of over 60% in size
Outline: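 HepG2 ARE-bla; cpd 11-pt qHTS, 16 h 37C/5% CO2; CCF4 substrate 2 h RT; read ex 405 / em 460 + 530 nm. Viability by CellTiter-Glo luminescence, 30 min RT.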

[6] = qHTS for inhibitors of ER calcium dysfunction: SERCaMP assay screened against the NCATS CANVASS Library (AID 1347393); conditions: SH-SY5Y GLuc-SERCaMP (Gaussia luciferase released on ER calcium loss) secretion, thapsigargin, luminescence; activity change, negative = inhibition: at 76.6 µM (top of the series) unless noted; also: nearly all actives have a fitted effect of over 40% in size; also: potency is read from the fitted curve at half-maximal effect;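 as to activity change, negative = inhibition: % is scaled to controls: 0 for no effect and ±100 for the full control effect; lower secreted reporter signal means inhibitor of ER calcium depletion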
Outline: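 Thapsigargin-induced ER calcium depletion drives GLuc-SERCaMP secretion from SH-SY5Y cells; compounds given 16 h beforehand were scored by lowered coelenterazine luminescence after 4 h challenge.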

[7] = COV-362 Cancer Cell Toxicity qHTS against the NCATS CANVASS Library (AID 1347352); also: % is scaled to controls: 0 for no effect and ±100 for the full control effect
Outline: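 1000 cells/well, 4 h pre-incubation 37 °C/5% CO2; 11-pnt titration; 72 h; CellTiter-Glo 15 min RT, luminescence.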

[8] = system: NAD(P)H diaphorase (Clostridium kluyveri); assay: Diaphorse counterscreen qHTS: Assay Interference Panel against the NCATS CANVASS Library (AID 1347362); also: 0% is about no effect
Outline: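 Counterscreen for coupling-enzyme interference: resorufin fluorescence from resazurin/NADH turnover, read after 5 min at room temperature. Compounds were tested over an 11-point series after 15 min dark preincubation with diaphorase in PBS-Tween.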

[9] = qHTS for Inflammasome Signaling Inhibitors: IL-1-beta AlphaLISA screen against the NCATS CANVASS Library (AID 1347379);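 also: human THP-1 cells primed with LPS then triggered with ATP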;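 as to activity change, negative = inhibition: secreted IL-1B measured as AlphaLISA emission at 615 nm; % is scaled to controls: 0 for no effect and ±100 for the full control effect; lower signal means less IL-1B release which is the wanted effect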;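 as to potency: secreted IL-1B measured as AlphaLISA emission at 615 nm; potency is read from the fitted curve at half-maximal effect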
Outline: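 THP-1, 1 hr compound pre-incubation, then LPS 250 ng/mL + ATP 1.25 mM (final); 16 hr total with compound; IL-1B AlphaLISA, ex 680/em 615 nm; 11-point qHTS, up to 57.5 uM final.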

[10] = qHTS for Antimalaria activity screened against the NCATS CANVASS Library (AID 1347380); also: nearly all actives have a fitted effect of over 40% in size; also: potency is read from the fitted curve at half-maximal effect;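 as to activity change, negative = inhibition: Plasmodium falciparum strain Dd2 asexual parasites grown in red blood cells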
Outline: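 SYBR Green fluorescence (ex 485, em 535 nm) read after saponin/Triton lysis and 18 h further incubation; Dd2 asexual blood-stage parasites, 72 h compound exposure, 11-pt concentration series, 2.5% hematocrit, 0.3% parasitemia.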

[11] = Vero-766 cells viability qHTS against the NCATS CANVASS Library: Counterscreen for Zika virus inhibition assay (AID 1347394); conditions: Vero 766 viability, CellTiter-Glo luminescence, 72 h; activity change, negative = cytotoxic: at 46.1 µM (top of the series); also: % is scaled to controls: 0 for no effect and ±100 for the full control effect; nearly all actives have a fitted effect of over 60% in size
Outline: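 This cytotoxicity counterscreen uses African green monkey Vero 766 cells in the absence of Zika virus. Compounds are incubated with cells for 72 h, and ATP-based luminescence reports viability.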

[12] = U-118MG Cancer Cell Toxicity qHTS against the NCATS CANVASS Library (AID 1347351); also: % is scaled to controls: 0 for no effect and ±100 for the full control effect
Outline: (§1)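 Following a 4 h pre-incubation of 1000 seeded cells, compounds were pinned in an 11-pnt dilution series and left for 72 h; viability then came from CellTiter-Glo.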

[13] = A2780 Cisplatin Sensitive Ovarian Cancer Cell Toxicity qHTS against the NCATS CANVASS Library (AID 1347353); also: nearly all actives have a fitted effect of over 60% in size
Outline: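 750 cells/well, 4 h settle; 11-pt cpd titration; 72 h, 37 °C, 5% CO2; ATPLite 10 min RT; luminescence read.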

[14] = SW1088 Cancer Cell Toxicity qHTS against the NCATS CANVASS Library (AID 1347350); also: % is scaled to controls: 0 for no effect and ±100 for the full control effect; nearly all actives have a fitted effect of over 75% in size
Outline: as §1

[15] = SDT Cancer Cell Toxicity qHTS against the NCATS CANVASS Library (AID 1347365)
Outline: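 Luminescent ATP read-out (CellTiterGlo) after 72 hr compound exposure of dog glioma SDT cells, 500 per well. Eleven-point titrations; bortezomib titration run alongside as control.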

[16] = qHTS for ATAD5 Antagonist screened against the NCATS CANVASS Library (AID 1347370); also: potency is read from the fitted curve at half-maximal effect; nearly all actives have a fitted effect of over 65% in size
Outline: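 HEK293T-ATAD5 luc reporter, 2000 cells/well; 5hr attach; cpd + 10 uM 5-FUrd; 16hr 37C, 5% CO2. Readouts: CellTiter-Fluor fluorescence (1hr), then Amplite luciferase luminescence (30min RT).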

[17] = qHTS for H2AX Agonists against the NCATS CANVASS Library (AID 1347378);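 also: phospho-H2AX S139 level in CHO-K1 lysates by TR-FRET emission ratio; 0% is about no effect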
Outline: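 Following overnight seeding, CHO-K1 cells are incubated with a concentration series of compound for 3 hr at 37C (final DMSO 0.76%). Cells are then lysed, detection antibodies added, and emission ratio 665/620 nm recorded after 24 hr at room temperature.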

[18] = Secretion counterscreen for inhibitors of the SERCaMP assay screened against the NCATS CANVASS Library (AID 1347390); conditions: SH-SY5Y constitutive GLuc secretion, luminescence, 20 h; activity change, negative = inhibition: at 76.6 µM (top of the series);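 also: light from luciferase secreted into medium read as a measure of general secretion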; also: potency is read from the fitted curve at half-maximal effect; as to activity change, negative = inhibition: % is scaled to controls: 0 for no effect and ±100 for the full control effect
Outline: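 Counterscreen identifying compounds that disrupt secretion, using SH-SY5Y cells with a constitutively secreted Gaussia luciferase reporter. A 20 h compound exposure (top 77 uM) precedes luminescent detection with coelenterazine.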

[19] = Primary qHTS for inhibitors of nuclear receptor binding SET domain protein 2 (NSD2) in an isogenic RCH-ACV NSD2 p.E1099K mutant (9B) (AID 1645876); also: nearly all actives have a fitted effect of over 70% in size
[20] = Primary fluorescence-based thiol-reactive (MSTI) qHTS assay for identification of artifact compounds. (AID 1845221);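 also: potency is read from the fitted curve at half-maximal effect; thiol-reactive compounds lower the probe fluorescence signal; nearly all actives have a fitted effect of over 65% in size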
Outline: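 In PBS pH 7.4 with 2% DMSO, each compound met 4 uM MSTI for one hour at ambient temperature, shielded from light, before fluorescence detection.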

[21] = HPAF-II 24hr Apoptosis Induction qHTS against the NCATS CANVASS Library (AID 1347356); also: 0% is about no effect
Outline: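 500 HPAF-II cells/well; compounds in 11-pnt qHTS; 24 h, 37 C/5% CO2; Caspase-Glo 3/7 added, 15 min RT dark; luminescence read. Doxorubicin control.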

[22] = Viability qHTS for inhibitors of the SERCaMP assay screened against the NCATS CANVASS Library (AID 1347400); also: % is scaled to controls: 0 for no effect and ±100 for the full control effect; nearly all actives have a fitted effect of over 70% in size
Outline: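 CellTiter-Glo luminescence readout after 48 h compound exposure (11-pnt qHTS series) of SH-SY5Y-GLuc SERCaMP MJH297 cells seeded at 1000 cells/well; bortezomib positive control.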
Tags tell the direction and shape of the fitted curve.

## C/C=C/c1cc(OC)c2c(c1)[C@@H](C)[C@H](c1ccc(O)c(OC)c1)O2
[1]
  Potency: active: 55.3 µM
[2]
  Potency: inconclusive [cytotoxic, partial curve, poor fit]
[3]
  Potency: inactive
[4]
  Potency: inactive
[5]
  Potency: inconclusive [activator, partial curve]
[6]
  Potency: active: 24.3 µM

## CN1CC[C@@]23c4ccccc4N[C@@H]1[C@@]21CCN(C)[C@@H]3Nc2ccccc21
[1]
  Potency: inconclusive [inhibitor, partial curve, poor fit]
[7]
  Potency: inactive
[8]
  Potency: inactive
[9]
  Potency: inconclusive [inhibitor, single point]
[10]
  Potency: active: 0.0075 µM
[6]
  Potency: inconclusive [inhibitor, partial curve]
[11]
  Potency: inactive

## CC1C(=O)C23CCC1C[C@]21O[C@@H]2C(C)(C)C=CC(=O)[C@@]23COC1=O (stereo not given in full)
[1]
  Potency: active: 31.1 µM
[12]
  Potency: inactive
[13]
  Potency: inactive
[2]
  Potency: inactive
[3]
  Potency: inactive
[9]
  Potency: inactive
[6]
  Potency: inconclusive [inhibitor, partial curve, poor fit]

## COc1ccc2cc(NC(=O)C3=NO[C@H]4[C@H](O)C=C[C@@H](Cl)[C@@]4(O)C3)c(=O)oc2c1OC
[1]
  Potency: active: 49.3 µM
[14]
  Potency: inactive
[15]
  Potency: inconclusive [cytotoxic, single point]
[16]
  Potency: inconclusive [inhibitor, partial curve]
[3]
  Potency: inactive
[17]
  Potency: inactive
[10]
  Potency: inactive
[18]
  activity change, negative = inhibition: inconclusive: -14% [inhibitor]
[5]
  Potency: inconclusive [activator, full curve]
[6]
  Potency: active: 15.3 µM

## CC(C)=CCC[C@@](C)(O)[C@H]1CC[C@]2(C)[C@@H]1[C@H](O)CC1[C@@]3(C)CC[C@H](O[C@@H]4O[C@H](CO)[C@@H](O)[C@H](O)[C@H]4O[C@@H]4O[C@H](CO)[C@@H](O)[C@H](O)[C@H]4O)C(C)(C)[C@@H]3CC[C@]12C (stereo not given in full)
[1]
  Potency: inconclusive [inhibitor, partial curve]
[19]
  Potency: inactive
[20]
  Potency: inconclusive [inhibitor, single point]

## C[C@H]1C[C@@H]([C@@H]2CC[C@]34O[C@H](CC[C@@]35C[C@H](C)C(=O)O5)CN24)OC1=O
[1]
  Potency: inactive
[21]
  Potency: inactive
[9]
  Potency: inactive
[10]
  Potency: inactive
[18]
  Potency: inconclusive [inhibitor, partial curve, poor fit]
[6]
  Potency: inactive
[22]
  Potency: inactive
